# Laboratory results: a collection of fitness landscapes (doi:10.1016/j.celrep.2020.107928)
# In all, about 81,000 sequences were measured (“one-hybrid fitness for binding parS DNA”: median about -0.17, highest 2% from about 0.51 on). This is one part of the list.
# B1: Caulobacter ParB omega fusion; a variant is named by its letters at X, in order, B8GW30 (parent)
# chain: MESVVVGEPGMSEGRRGLGRGLSALLGEVDAAPAQAPGEQLGGSREAPIEILQRNPDQPRRTFREEDLEDLSNSIREKGVLQPILVRPSPDTAGEYQIVAGERAWRAAQRAGLKTVPIMVRELDDLAVLEIGIIENVQRADLNVLEEALSYKVLMEKFERTQENIAQTIGKSXSHVANXMRLLXLPDEVQSYLVSGELTAXHARAIAAAADPVALAKQIIEGGLSVRETEALARKAPNLSAGKSKGGRPPRVKDTDTQALESDLSSVLGLDVSIDHRGSTGTLTITYATLEQLDDLCNRLTRGI
# Variants of: B1
# Assay: one-hybrid fitness for binding parS DNA (scaled: cognate 1, non-cognate 0); higher = stronger binding
# Conditions: with parS DNA site
# How it was run: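 Caulobacter ParB libraries with four specificity codons randomised were screened by bacterial one-hybrid selection in the E. coli USO strain, using a HIS3 reporter whose site lies 19 bp from the promoter. Selection ran for 48 hours at 37°C on M9 lacking histidine, with 0.1 mM IPTG and 5 mM 3-AT. Plasmids were Illumina-sequenced before and after selection, three replicate libraries were pooled, and variants with under 10 reads were dropped. Fitness is the log change in each variant's read ratio to wild type, rescaled against the cognate and non-cognate sites.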
row,Variant,one-hybrid fitness for binding parS DNA
1,LERE,≤ 0.2
2,TGPR,≤ 0.2
3,HSDR,≤ 0.2
4,FQSG,≤ 0.2
5,LDNM,≤ 0.2
6,EHLL,≤ 0.2
7,PVRE,≤ 0.2
8,WIPS,≤ 0.2
9,WLIN,≤ 0.2
10,TQYA,≤ 0.2
11,DQLS,≤ 0.2
12,YPAK,≤ 0.2
13,TVKK,≤ 0.2
14,VHEC,≤ 0.2
15,LIIG,≤ 0.2
16,CNLR,≤ 0.2
17,YDNR,≤ 0.2
18,PMVM,≤ 0.2
19,VGRG,≤ 0.2
20,KGMT,≤ 0.2
21,HRYY,≤ 0.2
22,DCPS,≤ 0.2
23,DAPE,≤ 0.2
24,NWCS,≤ 0.2
25,ESMC,≤ 0.2

row,Variant,one-hybrid fitness for binding parS DNA
1,DWLS,≤ 0.2
2,WLES,≤ 0.2
3,NRDC,≤ 0.2
4,MGRE,≤ 0.2
5,DGHI,≤ 0.2
6,STYT,≤ 0.2
7,GLRR,≤ 0.2
8,MISK,≤ 0.2
9,RMDQ,≤ 0.2
10,PYRT,≤ 0.2
11,RQGH,0.249
12,QAME,≤ 0.2
13,ETMD,≤ 0.2
14,WCLN,≤ 0.2
15,HYNF,≤ 0.2
16,QNME,≤ 0.2
17,AHTN,≤ 0.2
18,TWGC,≤ 0.2
19,HEKL,≤ 0.2
20,FTDS,≤ 0.2
21,DHHL,≤ 0.2
22,GNSM,≤ 0.2
23,IQYS,≤ 0.2
24,QHKD,≤ 0.2
25,QYTY,≤ 0.2

row,Variant,one-hybrid fitness for binding parS DNA
1,MVKS,≤ 0.2
2,KDLC,≤ 0.2
3,MNIG,≤ 0.2
4,LNMI,≤ 0.2
5,PRDP,≤ 0.2
6,NHNT,≤ 0.2
7,VKSC,≤ 0.2
8,KATY,≤ 0.2
9,RKVY,0.412
10,DALW,≤ 0.2
11,MLCR,≤ 0.2
12,DYLS,≤ 0.2
13,PMPK,≤ 0.2
14,ENQC,≤ 0.2
15,THHD,≤ 0.2
16,DRFS,≤ 0.2
17,QRTC,≤ 0.2
18,FPDR,≤ 0.2
19,APGG,≤ 0.2
20,PTFP,≤ 0.2
21,SNHV,≤ 0.2
22,IYLL,≤ 0.2
23,KKKY,≤ 0.2
24,IRKP,≤ 0.2
25,VQHM,≤ 0.2

row,Variant,one-hybrid fitness for binding parS DNA
1,SRKM,≤ 0.2
2,KIMS,≤ 0.2
3,RSIK,≤ 0.2
4,SVAR,≤ 0.2
5,NGEK,≤ 0.2
6,LCNT,≤ 0.2
7,PPDK,≤ 0.2
8,AYEG,≤ 0.2
9,ILKF,≤ 0.2
10,RFWN,≤ 0.2
11,PHHF,≤ 0.2
12,QMEA,≤ 0.2
13,SRKP,≤ 0.2
14,AYFS,≤ 0.2
15,KKTP,≤ 0.2
16,YWTD,≤ 0.2
17,TWHG,≤ 0.2
18,ERQE,≤ 0.2
19,PLNR,≤ 0.2
20,PLTQ,≤ 0.2
21,RTAL,≤ 0.2
22,PNHG,≤ 0.2
23,PTDE,≤ 0.2
24,GNVT,≤ 0.2
25,QRHP,≤ 0.2

row,Variant,one-hybrid fitness for binding parS DNA
1,ANVP,≤ 0.2
2,LYFK,≤ 0.2
3,AYYC,≤ 0.2
4,FDSG,≤ 0.2
5,PFVC,≤ 0.2
6,QALE,≤ 0.2
7,DFMG,≤ 0.2
8,LVTT,≤ 0.2
9,MPEN,≤ 0.2
10,PHPL,≤ 0.2
11,GWRS,≤ 0.2
12,PGWC,≤ 0.2
13,RHLV,≤ 0.2
14,MVTN,≤ 0.2
15,TMKL,≤ 0.2
16,DGKL,≤ 0.2
17,CTRT,≤ 0.2
18,SPNA,≤ 0.2
19,GRLD,≤ 0.2
20,NTVQ,≤ 0.2
21,VYQC,≤ 0.2
22,NVVS,≤ 0.2
23,NELT,≤ 0.2
24,SWKY,≤ 0.2
25,ADRA,≤ 0.2

row,Variant,one-hybrid fitness for binding parS DNA
1,FESG,≤ 0.2
2,MVRF,≤ 0.2
3,SAGS,≤ 0.2
4,HHQR,≤ 0.2
5,GYRS,≤ 0.2
6,QTGG,≤ 0.2
7,MSLN,≤ 0.2
8,REEA,≤ 0.2
9,RASK,≤ 0.2
10,LNKW,≤ 0.2
11,GSKM,≤ 0.2
12,PFGN,≤ 0.2
13,TYSE,≤ 0.2
14,CPAR,≤ 0.2
15,ALTA,≤ 0.2
16,HKNV,≤ 0.2
17,VMTK,≤ 0.2
18,PEDL,≤ 0.2
19,DSVI,≤ 0.2
20,NWPT,≤ 0.2
21,CLLC,≤ 0.2
22,NDMS,≤ 0.2
23,ENAG,≤ 0.2
24,RDII,≤ 0.2
25,TTMS,≤ 0.2

row,Variant,one-hybrid fitness for binding parS DNA
1,THMV,≤ 0.2
2,LPGC,≤ 0.2
3,QVNG,≤ 0.2
4,RGHQ,≤ 0.2
5,KQHR,≤ 0.2
6,VQFR,≤ 0.2
7,KHLP,≤ 0.2
8,HRIV,≤ 0.2
9,VSIT,≤ 0.2
10,WIDS,≤ 0.2
11,IVPR,≤ 0.2
12,PNTN,≤ 0.2
13,LLYM,≤ 0.2
14,PWVL,≤ 0.2
15,HGES,≤ 0.2
16,PPRF,≤ 0.2
17,MWLI,≤ 0.2
18,QKQN,≤ 0.2
19,SMPT,≤ 0.2
20,YRDS,≤ 0.2
21,HLIK,≤ 0.2
22,RLCQ,0.203
23,WRSL,≤ 0.2
24,WDPD,≤ 0.2
25,YWQG,≤ 0.2

row,Variant,one-hybrid fitness for binding parS DNA
1,GMTL,≤ 0.2
2,TMER,≤ 0.2
3,SRID,≤ 0.2
4,PYTT,≤ 0.2
5,LRRM,≤ 0.2
6,KFHF,≤ 0.2
7,MCRR,≤ 0.2
8,WVGC,≤ 0.2
9,SPTK,≤ 0.2
10,VLHS,≤ 0.2
11,TCNI,≤ 0.2
12,PNVM,≤ 0.2
13,VLFC,≤ 0.2
14,RTAA,0.579
15,NNTI,≤ 0.2
16,HRKI,≤ 0.2
17,RSNM,0.357
18,EDPT,≤ 0.2
19,ATHD,≤ 0.2
20,QTEY,≤ 0.2
